# The full ranking holds about 2,900 compounds; the median of “NF-kB SEAP reporter activity, fold change vs agonist alone” is about 0.99, and the highest 2% start at about 2.6. Some of the results follow.
# Assays:
# RAW-Dual [1] = experiment: NF-kB SEAP reporter activity, fold change vs agonist alone; higher = enhanced NF-kB activity; settings: library stock concentration (final ~1000-fold dilution): 10 mM
# Method in brief: (§1)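 After 50 nL of library stock was delivered by pin tool to RAW-Dual macrophages (50,000 cells/well, DMEM, 384-well plates), a PRR agonist was added 1 h later and the plates were kept at 37 °C, 5% CO2. Twenty hours later, IRF was read from supernatant by QuantiLuc luminescence and NF-κB by QuantiBlue absorbance at 620 nm. Reporter activity is stated as fold change over agonist-alone wells. Wells with IncuCyte confluency under 70% of agonist controls in both mask sets were counted as cytotoxic.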
# RAW-Dual [2] = experiment: NF-kB SEAP reporter activity, fold change vs agonist alone; cytotoxicity flag (confluency mask): cytotoxic (confluency <70% of control); higher = enhanced NF-kB activity
# Method in brief: as §1
# RAW-Dual [3] = experiment: NF-kB SEAP reporter activity, fold change vs agonist alone; cytotoxicity flag (confluency mask): not cytotoxic; higher = enhanced NF-kB activity
# Method in brief: as §1
# [4] = cytotoxicity flag (confluency mask): cytotoxic (confluency <70% of control), agonist: Imiquimod (TLR7) […]
# [5] = cytotoxicity flag (confluency mask): cytotoxic (confluency <70% of control), agonist: MPLA (TLR4) […]
# [6] = agonist: ODN 1826 (TLR9) 0.5 ug/mL
# [7] = agonist: Pam2CSK4 (TLR2/6) 0.1 ug/mL
# [8] = agonist: Pam3CSK4 (TLR2/1) 0.1 ug/mL
# [9] = cytotoxicity flag (confluency mask): not cytotoxic, agonist: Imiquimod (TLR7) […]
# [10] = cytotoxicity flag (confluency mask): not cytotoxic, agonist: MPLA (TLR4) […]
compound,measurement,setting,value
Nc1ccc(-c2ccc3ncc4ccc(=O)n(-c5cccc(C(F)(F)F)c5)c4c3c2)cn1,NF-kB SEAP reporter activity,RAW-Dual [1]; [4],2.12
same,NF-kB SEAP reporter activity,RAW-Dual [1]; [5],2.7
Nc1ccc(-c2ccc3ncc4ccc(=O)n(-c5cccc(C(F)(F)F)c5)c4c3c2)cn1 (library stock concentration (final ~1000-fold dilution): 10 mM),NF-kB SEAP reporter activity,RAW-Dual [2]; agonist: LPS (TLR4) 0.1 ug/mL,5.68
same,NF-kB SEAP reporter activity,RAW-Dual [2]; [6],2.16
same,NF-kB SEAP reporter activity,RAW-Dual [2]; [7],1.77
same,NF-kB SEAP reporter activity,RAW-Dual [2]; [8],3.14
COC(=O)C(CCSC)NC(=O)c1ccc(NCC(N)CS)cc1-c1ccccc1.Cl (stereo not given),NF-kB SEAP reporter activity,RAW-Dual [1]; [9],1.13
same,NF-kB SEAP reporter activity,RAW-Dual [1]; [10],1.22
COC(=O)C(CCSC)NC(=O)c1ccc(NCC(N)CS)cc1-c1ccccc1.Cl (stereo not given) (library stock concentration (final ~1000-fold dilution): 10 mM),NF-kB SEAP reporter activity,RAW-Dual [3]; agonist: LPS (TLR4) 0.1 ug/mL,1.38
same,NF-kB SEAP reporter activity,RAW-Dual [3]; [6],1.56
same,NF-kB SEAP reporter activity,RAW-Dual [3]; [7],1.16
same,NF-kB SEAP reporter activity,RAW-Dual [3]; [8],0.929
COc1cc2nc(N(C)CCCNC(=O)C3CCCO3)nc(N)c2cc1OC.Cl (stereo not given),NF-kB SEAP reporter activity,RAW-Dual [1]; [9],1.08
same,NF-kB SEAP reporter activity,RAW-Dual [1]; [10],0.909
COc1cc2nc(N(C)CCCNC(=O)C3CCCO3)nc(N)c2cc1OC.Cl (stereo not given) (library stock concentration (final ~1000-fold dilution): 10 mM),NF-kB SEAP reporter activity,RAW-Dual [3]; agonist: LPS (TLR4) 0.1 ug/mL,1.21
same,NF-kB SEAP reporter activity,RAW-Dual [3]; [6],0.916
same,NF-kB SEAP reporter activity,RAW-Dual [3]; [7],0.953
same,NF-kB SEAP reporter activity,RAW-Dual [3]; [8],1.09
COc1cc2nc(N3CCCC3)nc(NCCCCCN3CCCC3)c2cc1OC (library stock concentration (final ~1000-fold dilution): 10 mM),NF-kB SEAP reporter activity,RAW-Dual [2]; agonist: LPS (TLR4) 0.1 ug/mL,0.465
same,NF-kB SEAP reporter activity,RAW-Dual [2]; [6],0.186
same,NF-kB SEAP reporter activity,RAW-Dual [2]; [7],0.411
same,NF-kB SEAP reporter activity,RAW-Dual [2]; [8],0.476
COc1cc2nc(N3CCCC3)nc(NCCCCCN3CCCC3)c2cc1OC,NF-kB SEAP reporter activity,RAW-Dual [1]; [4],0.736
same,NF-kB SEAP reporter activity,RAW-Dual [1]; [5],0.486
Nc1nc(N)c(N=O)c(OCC2CCCCC2)n1,NF-kB SEAP reporter activity,RAW-Dual [1]; [9],0.752
same,NF-kB SEAP reporter activity,RAW-Dual [1]; [10],1.66
Nc1nc(N)c(N=O)c(OCC2CCCCC2)n1 (library stock concentration (final ~1000-fold dilution): 10 mM),NF-kB SEAP reporter activity,RAW-Dual [3]; agonist: LPS (TLR4) 0.1 ug/mL,1.39
same,NF-kB SEAP reporter activity,RAW-Dual [3]; [6],0.97
same,NF-kB SEAP reporter activity,RAW-Dual [3]; [7],1.04
same,NF-kB SEAP reporter activity,RAW-Dual [3]; [8],0.655
Cn1cnc2c(F)c(Nc3ccc(Br)cc3F)c(C(=O)NOCCO)cc21 (library stock concentration (final ~1000-fold dilution): 10 mM),NF-kB SEAP reporter activity,RAW-Dual [3]; agonist: LPS (TLR4) 0.1 ug/mL,0.182
same,NF-kB SEAP reporter activity,RAW-Dual [3]; [6],0.308
same,NF-kB SEAP reporter activity,RAW-Dual [3]; [7],0.0645
same,NF-kB SEAP reporter activity,RAW-Dual [3]; [8],0.118
Cn1cnc2c(F)c(Nc3ccc(Br)cc3F)c(C(=O)NOCCO)cc21,NF-kB SEAP reporter activity,RAW-Dual [1]; [9],0.193
same,NF-kB SEAP reporter activity,RAW-Dual [1]; [10],0.23
CN(C(Cc1ccc(OS(=O)(=O)c2cccc3cnccc23)cc1)C(=O)N1CCN(c2ccccc2)CC1)S(=O)(=O)c1cccc2cnccc12 (stereo not given),NF-kB SEAP reporter activity,RAW-Dual [1]; [9],1.12
same,NF-kB SEAP reporter activity,RAW-Dual [1]; [10],1.32
CN(C(Cc1ccc(OS(=O)(=O)c2cccc3cnccc23)cc1)C(=O)N1CCN(c2ccccc2)CC1)S(=O)(=O)c1cccc2cnccc12 (stereo not given) (library stock concentration (final ~1000-fold dilution): 10 mM),NF-kB SEAP reporter activity,RAW-Dual [3]; agonist: LPS (TLR4) 0.1 ug/mL,1.47
same,NF-kB SEAP reporter activity,RAW-Dual [3]; [6],1.13
same,NF-kB SEAP reporter activity,RAW-Dual [3]; [7],0.814
same,NF-kB SEAP reporter activity,RAW-Dual [3]; [8],0.751
COC1/C=C/OC2(C)Oc3c(C)c(O)c4c(O)c(c5c(nc6cc(C)ccn65)c4c3C2=O)NC(=O)/C(C)=C\C=C\C(C)C(O)C(C)C(O)C(C)C(OC(C)=O)C1C (stereo not given) (library stock concentration (final ~1000-fold dilution): 10 mM),NF-kB SEAP reporter activity,RAW-Dual [3]; agonist: LPS (TLR4) 0.1 ug/mL,1.17
same,NF-kB SEAP reporter activity,RAW-Dual [3]; [6],1.03
same,NF-kB SEAP reporter activity,RAW-Dual [3]; [7],0.971
same,NF-kB SEAP reporter activity,RAW-Dual [3]; [8],0.975
COC1/C=C/OC2(C)Oc3c(C)c(O)c4c(O)c(c5c(nc6cc(C)ccn65)c4c3C2=O)NC(=O)/C(C)=C\C=C\C(C)C(O)C(C)C(O)C(C)C(OC(C)=O)C1C (stereo not given),NF-kB SEAP reporter activity,RAW-Dual [1]; [9],0.894
same,NF-kB SEAP reporter activity,RAW-Dual [1]; [10],0.832
CN1CCC(Nc2nc(Nc3ccc(Oc4ccccc4)cc3)c3c(=O)[nH]cc(Br)c3n2)CC1,NF-kB SEAP reporter activity,RAW-Dual [1]; [9],0.999
same,NF-kB SEAP reporter activity,RAW-Dual [1]; [10],1.01
CN1CCC(Nc2nc(Nc3ccc(Oc4ccccc4)cc3)c3c(=O)[nH]cc(Br)c3n2)CC1 (library stock concentration (final ~1000-fold dilution): 10 mM),NF-kB SEAP reporter activity,RAW-Dual [3]; agonist: LPS (TLR4) 0.1 ug/mL,0.817
same,NF-kB SEAP reporter activity,RAW-Dual [3]; [6],0.899
same,NF-kB SEAP reporter activity,RAW-Dual [3]; [7],0.822
same,NF-kB SEAP reporter activity,RAW-Dual [3]; [8],0.933
NC(=O)c1cccc(-c2cccc(OC(=O)NC3CCCCC3)c2)c1,NF-kB SEAP reporter activity,RAW-Dual [1]; [9],1.11
same,NF-kB SEAP reporter activity,RAW-Dual [1]; [10],1.13
NC(=O)c1cccc(-c2cccc(OC(=O)NC3CCCCC3)c2)c1 (library stock concentration (final ~1000-fold dilution): 10 mM),NF-kB SEAP reporter activity,RAW-Dual [3]; agonist: LPS (TLR4) 0.1 ug/mL,0.736
same,NF-kB SEAP reporter activity,RAW-Dual [3]; [6],0.771
same,NF-kB SEAP reporter activity,RAW-Dual [3]; [7],1.16
same,NF-kB SEAP reporter activity,RAW-Dual [3]; [8],1.16
Cc1[nH]c(=O)c(C#N)cc1-c1ccc2nccn2c1,NF-kB SEAP reporter activity,RAW-Dual [1]; [9],0.701
same,NF-kB SEAP reporter activity,RAW-Dual [1]; [10],0.957
Cc1[nH]c(=O)c(C#N)cc1-c1ccc2nccn2c1 (library stock concentration (final ~1000-fold dilution): 10 mM),NF-kB SEAP reporter activity,RAW-Dual [3]; agonist: LPS (TLR4) 0.1 ug/mL,0.814
same,NF-kB SEAP reporter activity,RAW-Dual [3]; [6],0.943
same,NF-kB SEAP reporter activity,RAW-Dual [3]; [7],1.07
same,NF-kB SEAP reporter activity,RAW-Dual [3]; [8],0.818
CCN(CC)CCNC(=O)c1c(C)[nH]c(/C=C2/C(=O)Nc3ccc(-c4csc(-c5ccccc5)n4)cc32)c1C (library stock concentration (final ~1000-fold dilution): 10 mM),NF-kB SEAP reporter activity,RAW-Dual [2]; agonist: LPS (TLR4) 0.1 ug/mL,0.882
same,NF-kB SEAP reporter activity,RAW-Dual [2]; [6],0.397
same,NF-kB SEAP reporter activity,RAW-Dual [2]; [7],0.37
same,NF-kB SEAP reporter activity,RAW-Dual [2]; [8],0.645
CCN(CC)CCNC(=O)c1c(C)[nH]c(/C=C2/C(=O)Nc3ccc(-c4csc(-c5ccccc5)n4)cc32)c1C,NF-kB SEAP reporter activity,RAW-Dual [1]; [4],1.35
same,NF-kB SEAP reporter activity,RAW-Dual [1]; [5],1.55
COc1c(-c2ccc3cc(NS(C)(=O)=O)ccc3c2)cc(-n2ccc(=O)[nH]c2=O)cc1C(C)(C)C (library stock concentration (final ~1000-fold dilution): 10 mM),NF-kB SEAP reporter activity,RAW-Dual [3]; agonist: LPS (TLR4) 0.1 ug/mL,1.69
same,NF-kB SEAP reporter activity,RAW-Dual [3]; [6],0.702
same,NF-kB SEAP reporter activity,RAW-Dual [3]; [7],0.56
same,NF-kB SEAP reporter activity,RAW-Dual [3]; [8],0.383
COc1c(-c2ccc3cc(NS(C)(=O)=O)ccc3c2)cc(-n2ccc(=O)[nH]c2=O)cc1C(C)(C)C,NF-kB SEAP reporter activity,RAW-Dual [1]; [10],1.35
NC1CONC1=O (stereo not given),NF-kB SEAP reporter activity,RAW-Dual [1]; [9],0.947
same,NF-kB SEAP reporter activity,RAW-Dual [1]; [10],1.19
NC1CONC1=O (stereo not given) (library stock concentration (final ~1000-fold dilution): 10 mM),NF-kB SEAP reporter activity,RAW-Dual [3]; agonist: LPS (TLR4) 0.1 ug/mL,1.64
same,NF-kB SEAP reporter activity,RAW-Dual [3]; [6],1.13
same,NF-kB SEAP reporter activity,RAW-Dual [3]; [7],1.33
same,NF-kB SEAP reporter activity,RAW-Dual [3]; [8],1.31
Cc1cc(Nc2nc(NC(C)c3ccc(F)cc3)c(C#N)cc2F)n[nH]1 (stereo not given),NF-kB SEAP reporter activity,RAW-Dual [1]; [9],1
same,NF-kB SEAP reporter activity,RAW-Dual [1]; [10],0.984
Cc1cc(Nc2nc(NC(C)c3ccc(F)cc3)c(C#N)cc2F)n[nH]1 (stereo not given) (library stock concentration (final ~1000-fold dilution): 10 mM),NF-kB SEAP reporter activity,RAW-Dual [3]; agonist: LPS (TLR4) 0.1 ug/mL,1.87
same,NF-kB SEAP reporter activity,RAW-Dual [3]; [6],0.965
same,NF-kB SEAP reporter activity,RAW-Dual [3]; [7],1.44
same,NF-kB SEAP reporter activity,RAW-Dual [3]; [8],0.993
Nc1ccc(-c2cccc(C(=O)Nc3cnc4nc(N5CCOCC5)oc4c3)n2)cn1 (library stock concentration (final ~1000-fold dilution): 10 mM),NF-kB SEAP reporter activity,RAW-Dual [3]; agonist: LPS (TLR4) 0.1 ug/mL,1.43
same,NF-kB SEAP reporter activity,RAW-Dual [3]; [6],1.01
same,NF-kB SEAP reporter activity,RAW-Dual [3]; [7],0.911
same,NF-kB SEAP reporter activity,RAW-Dual [3]; [8],1.33
Nc1ccc(-c2cccc(C(=O)Nc3cnc4nc(N5CCOCC5)oc4c3)n2)cn1,NF-kB SEAP reporter activity,RAW-Dual [1]; [9],1.04
same,NF-kB SEAP reporter activity,RAW-Dual [1]; [10],1.08

# Source: the supplement of paper PMC10037445
